# Experimental data from PubChem BioAssay AID504832 (National Center for Advancing Translational Sciences (NCATS), 2011).
# The whole screen tested about 310,000 compounds, of which about 18,000 (5.8%) were called active. Inconclusive means that the source gave no clear call. Such entries were picked first, then a sample of the others. Calls follow the shape of the dose curve; as a rule, active = well fitted inhibition curve with a large enough effect; inconclusive = small, poorly fitted or top-dose-only effect, or another doubt; inactive = no such curve, though single readings can be large or run the other way. Potencies of inconclusive entries are left out as doubtful fits.
# Assay: Primary qHTS for delayed death inhibitors of the malarial parasite plastid, 48 hour incubation
# Conditions: P. falciparum luciferase growth in erythrocytes; series mostly up to 28.7 µM; activity change, negative = inhibition: at the top concentration
# Method in brief: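 Erythrocytes infected with P. falciparum carrying an integrated firefly luciferase reporter (2% hematocrit, 0.1% parasitemia final) were exposed to compounds in RPMI 1640 with 0.5% Albumax at 37 C, 5% CO2. Growth inhibition was scored as reduced luminescence.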
# % is scaled to controls: 0 for no effect and ±100 for the full control effect; potency is read from the fitted curve at half-maximal effect; tags tell the direction and shape of the fitted curve.
Compound,Potency,"activity change, negative = inhibition"
CC(C)CC(C(=O)NC1CCCC1)N(Cc1cccs1)C(=O)c1snc(C(N)=O)c1N (stereo unspecified),"inconclusive [inhibitor, single point]",–
CN1C(=O)C(C)(C)c2cc(S(=O)(=O)N3CCCC3C(=O)NCc3ccc(F)cc3)ccc21 (stereo unspecified),"inconclusive [inhibitor, full curve, poor fit]",–
Nc1nc2c(c(=O)[nH]1)N(C=O)[C@H](CNc1ccc(C(=O)N[C@@H](CCC(=O)O)C(=O)O)cc1)CN2,–,inactive: 0.0918% [at 12.8 µM]
Cc1ccc(N2C(=O)[C@@H]3[C@H](C2=O)[C@H]2C=CC=NN2[C@@H]3C(=O)Nc2ccccc2)cc1,"inconclusive [inhibitor, single point]",–
C#CCOCCOCCOCCNc1nc(N2CCN(C(=O)CCCCCCCCCCNC(=O)[C@H](CO)n3cc(CCCSC)nn3)CC2)nc(N2CCN(C(=O)CCCCCCCCCCNC(=O)[C@@H]([C@H](C)O)n3cc(C)nn3)CC2)n1,active: 0.294 µM,–
O=C1/C(=C\c2ccc([N+](=O)[O-])cc2)N2CCC1CC2,"inconclusive [inhibitor, single point]",–
COc1ccc(-c2c(C#Cc3ccsc3)c3cc(-c4ccc5[nH]ccc5c4)ccc3n2C)cc1,"inconclusive [inhibitor, single point]",–
COC(=O)c1ccccc1NC(=O)C1CC(c2ccccc2O)=NO1 (stereo unspecified),"inconclusive [inhibitor, single point]",–
Cc1ccc(C)c(S(=O)(=O)N2CCN(C(=O)Cn3[nH]c(=O)c4ccccc4c3=O)CC2)c1,"inconclusive [inhibitor, single point]",–
O=C(O)CC(C(=O)O)N1C(=O)/C(=C/C=C/c2ccco2)SC1=S (stereo unspecified),–,inactive: 37.7%
Clc1cccc(N/N=C/c2ccc(N3CCOCC3)s2)c1,"inconclusive [inhibitor, single point]",–
Cc1c(Cl)cccc1NC(=S)N1CCCN(Cc2ccc(F)cc2)C1,"inconclusive [inhibitor, single point]",–
COc1ccccc1NC(=O)Nc1nc(CC(=O)Nc2ccc(F)cc2)cs1,"inconclusive [inhibitor, single point]",–
O=C(Cc1ccc(Cl)cc1)SCc1ccccc1,–,inactive: 21.7%
O=C(COC(=O)c1cc2ccccc2oc1=O)Nc1cccc(S(=O)(=O)N2CCCCCC2)c1,–,inactive: -5.53%
Cc1ccc(-c2nc(SCC(=O)N(C)c3c(N)n(Cc4ccccc4)c(=O)[nH]c3=O)n[nH]2)cc1,–,inactive: 27.4%
O=C(Cn1cc[n+](Cc2ccccc2)c1)c1ccc([N+](=O)[O-])cc1,"inconclusive [inhibitor, single point]",–
COc1ccc(CNC(=O)C2CCN(S(=O)(=O)c3cccc4nonc34)CC2)cc1,–,inactive: 4.73%
Cc1ccc2c(c1)CCCN2C(=O)c1ccc2c(c1)OCO2,"inconclusive [inhibitor, single point]",–
COc1cc(CNCCc2ccc(S(N)(=O)=O)cc2)ccc1OCc1ccc(Cl)cc1,active: 8.28 µM,–
CCCCCCCC/C=C\CCCCCCCC(=O)NCCO,active: 2.94 µM,–

Compound,Potency,"activity change, negative = inhibition"
O=c1c2ccccc2ncn1-c1ccc([N+](=O)[O-])cc1[N+](=O)[O-],"inconclusive [inhibitor, single point]",–
O=C(O)c1ccc(NC(=O)c2cccc(N3C(=O)C4C5CCC(C5)C4C3=O)c2)cc1 (stereo unspecified),–,inactive: 1.29%
COc1ccccc1/C=C/c1onc(C)c1S(=O)(=O)N1CCC(C(=O)NC2CCCCCC2)CC1,"inconclusive [inhibitor, partial curve, poor fit]",–
N#CCSc1ncccc1-c1nc2ccccc2[nH]1,"inconclusive [inhibitor, partial curve, poor fit]",–
CC1(C)Cc2cccc(OCC(=O)N3CCN(c4ccccc4Cl)CC3)c2O1,"inconclusive [inhibitor, single point]",–
Cc1cc(C)cc(OCC(=O)O/N=C(\N)c2cccnc2)c1,"inconclusive [inhibitor, single point]",–
COCc1cc(C)nc(N/N=C/c2ccc(Cl)c(Cl)c2)c1C#N,–,inactive: 1.07%
CS(=O)(=O)c1ccc(C(=O)Nc2ccc(-c3nc4ccccc4[nH]3)cc2)cc1,active: 1.85 µM,–
Cc1cc(NC(=O)Cn2c(=O)n(Cc3ccccc3)c(=O)c3ccccc32)no1,active: 9.28 µM,–
CCOc1ccccc1NC(=O)N1CCCC(c2nc3c(nnn3Cc3ccc(C)cc3)c(=O)[nH]2)C1 (stereo unspecified),active: 4.15 µM,–
Cc1ccc(-c2cc(C(=O)N3CCN(c4ccccc4O)CC3)c3ccccc3n2)o1,"inconclusive [inhibitor, single point]",–
CC(C)COC(=O)/C(C#N)=C/c1cn(Cc2ccccc2)c2ccccc12,"inconclusive [inhibitor, single point]",–
O=C(O)CCCNc1cc(N2CCC3(CC2)OCCO3)c2noc3c2c1C(=O)c1ccccc1-3,"inconclusive [inhibitor, single point]",–
CCOC(=O)N1CCN(C(=O)c2ccc(S(=O)(=O)Nc3cccc(C(F)(F)F)c3)cc2)CC1,"inconclusive [inhibitor, single point]",–
COc1ccccc1CNc1nc(=S)[nH]c2cc(OC)c(OC)cc12,"inconclusive [inhibitor, partial curve, poor fit]",–
O=C1/C(=C\c2cccnc2)SC(=S)N1C1CCS(=O)(=O)C1 (stereo unspecified),"inconclusive [inhibitor, partial curve]",–
COc1ccc(CNC(=O)c2oc3ccc(S(=O)(=O)N4CCOCC4)cc3c2C)cc1,active: 11.7 µM,–
COc1ccc(-c2cc3ccccc3oc2=O)cc1NC(=O)c1ccc([N+](=O)[O-])o1,"inconclusive [inhibitor, full curve]",–
Cc1c(C(=O)NCc2cccnc2)oc2ccc(S(=O)(=O)N3CCC4(CC3)OCCO4)cc12,"inconclusive [inhibitor, single point]",–
Cc1cc(OC(C)C(=O)NCc2cccnc2)c2c(C)c(C)c(=O)oc2c1 (stereo unspecified),"inconclusive [inhibitor, partial curve, poor fit]",–
